In PubChem BioAssay AID686970 (National Center for Advancing Translational Sciences (NCATS), 2013):
Out of some 360,000 compounds screened, about 6,000 (1.7%) were called active. This list was built around the results that the source calls inconclusive (neither active nor inactive); the mix of calls is not that of the screen. Calls come from the whole dose curve; as a rule, active = well fitted cell-killing curve with a large enough effect; inconclusive = small, poorly fitted or top-dose-only effect, or effect the other way; inactive = flat fitted curve, though single readings scatter. No potency is given beside an inconclusive call; the fits are too rough.
Potency is the fitted concentration of half-maximal effect; tags give direction and shape of the fitted curve.

Assay: qHTS for induction of synthetic lethality in tumor cells producing 2HG: qHTS for the HT-1080-NT fibrosarcoma cell line;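 note: NT is the 2HG producing partner of a matched IDH1 knockdown line; nearly all actives have a fitted effect of over 55% in size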
Conditions: HT-1080-NT fibrosarcoma viability, CellTiter-Glo ATP luminescence, 48 h; series mostly up to 46.1 µM
Summary of the method: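 Toxicity toward the 2HG-producing NT line was scored as %Activity, normalised to DMSO and no-cell wells, from CellTiter-Glo luminescence after 48 hours' treatment.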
In the case of CN1C(=O)c2ccc(S(=O)(=O)c3ccc(C(=O)O)cc3)cc2C1=O, the Potency is reported as inconclusive [rising, partial curve]. With O=C1c2cccc3c(O)ccc(c23)C(=O)N1Cc1ccccc1 the Potency was inconclusive [cytotoxic, single point]. With Cc1nn(C)c(C)c1NC(=O)COc1ccc(Cl)cc1Br the Potency was inconclusive [cytotoxic, partial curve]. For O=C(COc1ccccc1)NC(=S)Nc1cccc2c(O)cccc12, the Potency was inconclusive [cytotoxic, single point]. In the case of Cc1cccn2c(=O)c3cc(C(=O)NCCc4ccccc4)c(=N)n(CCCn4ccnc4)c3nc12, the Potency is reported as inconclusive [cytotoxic, single point]. With CCn1c(SCC(=O)NCC2CCCO2)nnc1-c1c[nH]c2ccccc12 (centres undefined) the Potency was inconclusive [rising, single point]. For CCOC(=O)c1[nH]c(C)c(C(=O)OCc2c(C)noc2C)c1C, the Potency was inconclusive [cytotoxic, single point]. For Cc1ccnc(N2C(=O)c3cccc4c([N+](=O)[O-])ccc(c34)C2=O)c1, the Potency was active: 5.01 µM. With Cn1cccc1/C=C1\SC(=Nc2ccccc2)NC1=O the Potency was inconclusive [cytotoxic, full curve]. In the case of Cc1ccsc1/C=C1\CCC(C2CCCC2)C1=O (centres undefined), the Potency is reported as inconclusive [rising, single point]. In the case of CSC1=NCCN1C(=O)c1cccs1, the Potency is reported as inconclusive [rising, single point]. With Cc1ccc(N=Cc2cc(Cc3ccccc3Cl)cc([N+](=O)[O-])c2O)c(O)c1 the Potency was inconclusive [cytotoxic, single point]. With O=C(CC(=O)c1ccccc1O)c1cccc(F)c1 the Potency was inconclusive [cytotoxic, single point]. For O=S(=O)(c1cnc(Cl)c(Br)c1)N1CCN(c2ncccn2)CC1, the Potency was “inactive”. With COc1cccc(/C=C/C(=O)c2ccc(NC3=NCCCS3)cc2)c1 the Potency was inconclusive [cytotoxic, partial curve, poor fit]. In the case of COc1ccc(/C=C2/CCCc3ccccc3C2=O)cc1, the Potency is reported as active: 8.2 µM. With Cc1ccc(C(=O)NC(=S)Nc2ccc(CN3CCCCC3)cc2)c(C)c1 the Potency was inconclusive [cytotoxic, single point]. In the case of CC(C)C(=O)NC(=S)Nc1ccc(S(=O)(=O)N(C)Cc2ccccc2)cc1, the Potency is reported as inconclusive [cytotoxic, single point]. With Brc1cc2ccccc2[n+](Cc2ccccc2)c1 the Potency was inconclusive [cytotoxic, single point].
